Screen size: about 310,000 compounds; about 14,000 (4.5%) showed an effect of 50% or more. Effects have a minus sign here. The list shows a part of the results.
target: human ether-à-go-go-related gene (hERG) potassium channel (human, UniProt Q12809); assay: primary screen, population patch clamp on CHO cells stably expressing hERG
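Note: peak tail current of the secondary pulse compared with the same well before compound.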

Chain of human ether-à-go-go-related gene (hERG) potassium channel (Q12809 whole entry, looked up): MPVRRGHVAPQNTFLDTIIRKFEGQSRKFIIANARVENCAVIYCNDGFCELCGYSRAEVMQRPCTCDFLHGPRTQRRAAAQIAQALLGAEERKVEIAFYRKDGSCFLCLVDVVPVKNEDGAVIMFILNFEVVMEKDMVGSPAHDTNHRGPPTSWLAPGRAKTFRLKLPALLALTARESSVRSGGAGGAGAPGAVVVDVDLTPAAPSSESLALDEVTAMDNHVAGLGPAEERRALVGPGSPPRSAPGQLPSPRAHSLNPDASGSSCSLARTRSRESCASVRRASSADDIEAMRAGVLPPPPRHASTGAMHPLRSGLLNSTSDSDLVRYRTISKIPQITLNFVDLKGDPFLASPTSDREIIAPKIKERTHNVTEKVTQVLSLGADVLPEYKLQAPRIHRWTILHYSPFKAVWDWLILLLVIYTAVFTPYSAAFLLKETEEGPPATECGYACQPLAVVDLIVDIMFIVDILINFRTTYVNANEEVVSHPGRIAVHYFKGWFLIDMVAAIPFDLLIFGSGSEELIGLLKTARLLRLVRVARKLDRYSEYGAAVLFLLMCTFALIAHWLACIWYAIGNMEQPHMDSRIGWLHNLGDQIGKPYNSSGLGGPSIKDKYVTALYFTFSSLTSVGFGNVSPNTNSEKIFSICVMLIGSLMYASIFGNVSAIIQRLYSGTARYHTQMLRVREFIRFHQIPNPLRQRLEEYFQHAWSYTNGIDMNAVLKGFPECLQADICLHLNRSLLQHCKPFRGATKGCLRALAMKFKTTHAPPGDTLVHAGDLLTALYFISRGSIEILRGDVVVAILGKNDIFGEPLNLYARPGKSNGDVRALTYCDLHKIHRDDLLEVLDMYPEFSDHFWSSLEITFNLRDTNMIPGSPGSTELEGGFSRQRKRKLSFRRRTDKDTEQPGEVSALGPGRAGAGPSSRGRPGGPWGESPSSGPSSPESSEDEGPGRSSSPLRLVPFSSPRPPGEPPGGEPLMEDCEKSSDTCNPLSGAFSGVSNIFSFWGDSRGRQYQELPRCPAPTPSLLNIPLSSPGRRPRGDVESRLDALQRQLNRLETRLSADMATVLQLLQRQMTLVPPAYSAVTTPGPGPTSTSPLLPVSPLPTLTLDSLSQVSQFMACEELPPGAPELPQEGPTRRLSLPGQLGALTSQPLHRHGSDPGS

Compound | hERG current change (%, negative = inhibition) at 10uM [%]
Cc1cccc(N/C(=N\S(=O)(=O)c2ccccc2)C(F)(F)F)c1 | 2.55
O=C(O)c1ccc(CNS(=O)(=O)c2ccc3ccccc3c2)cc1 | 21.7
CCOC(=O)c1c(C)oc2cc(Br)c(O)c(Br)c12 | 8.34
CCCn1nnnc1SCC(=O)Nc1ccc(F)cc1 | -25.3
CCOC(=O)C(O)(c1ccc(N(CC)S(=O)(=O)c2ccc(C)cc2)cc1)C(F)(F)F (stereo not drawn) | -36.3
CC(/C=C/c1ccco1)=N\NC(=O)c1cccnc1 | 12.5
CC(OC(=O)/C=C/c1ccc2ccccc2n1)C(=O)NCc1ccccc1 (stereo not drawn) | 11
Cc1oc(-c2ccccc2F)nc1CS(=O)CC(=O)NC1CCCCC1 (stereo not drawn) | 9.5
O=C(O)CCCNS(=O)(=O)c1ccc(F)cc1 | 28.8
O=C(NC12CC3CC(CC(C3)C1)C2)c1cnccn1 | 7.83
CN(C)c1cc[n+](CC(O)C[n+]2ccc(N(C)C)cc2)cc1.[O-][Cl+3]([O-])([O-])[O-] | 15.9
COc1cccc(-c2sc3ccc(OC)cc3c2C#CCC(C)O)c1 (stereo not drawn) | 25.8
O=C(O)C1CCC(Cn2c(SCc3cc(=O)n4cc(Cl)ccc4n3)nc3ccsc3c2=O)CC1 (stereo not drawn) | -1.89
Cc1ccc(-c2nn3c(C)nnc3c3ccccc23)cc1S(=O)(=O)N1CCN(CCO)CC1 | -74.5
Cn1cc(Cl)c(C(=O)NNC(=S)NCc2ccco2)n1 | 3.95
O=C(N/N=C\c1ccc(COc2ccc([N+](=O)[O-])cc2)o1)c1ccc(Cl)cc1 | -67.6
Cn1c2ccc(F)cc2c2ncn(Cc3ccco3)c(=O)c21 | -13.9
Cc1ccc(S(=O)(=O)NN2C(=O)c3ccccc3NC2c2ccccc2O)cc1 (stereo not drawn) | -9.48
C[C@@H]1C[C@@H]2O[C@H]2/C=C\C=C\C(=O)Cc2c(Cl)c(O)cc(O)c2C(=O)O1 | 14.2
CCOC(=O)Cc1csc(NC(=O)COc2ccc(OC)cc2)n1 | -18.1
CCC1=C2CC[C@H]3C(=O)N(c4ccccc4)C(=O)[C@H]3[C@H]2[C@@]2(C)C(=NCc3ccccc3)OC(=O)N2C1=O | -0.148
CCC(C)NS(=O)(=O)c1cc2c3c(c1)CCC(=O)N3CCC2 (stereo not drawn) | 28.5
C#CCNC(=O)C1=C[C@H](C2CCCCC2)C[C@H](OCCCCO)O1 | -5.39
Cc1ccc(C(=O)Nc2ncc(Cc3ccc(F)cc3)s2)o1 | -2.85

From article PMC4336329 (PLoS ONE, 2015)
